The supplement of paper PMC3334620
Over roughly 33,000 sequences, “E-score (-0.5 to 0.5)” has its median near -0.035; the highest 2% begin near 0.34. The list shows a part of the results.

What follows are sequences tested against T1, Mot3 (UniProt P54785) (assay: PBM E-score (8-mer binding enrichment) (E-score (-0.5 to 0.5)); higher = stronger / more preferred TF binding; most listed sequences are background and not binding sites). Conditions: protein concentration: 200 nM; construct: GST-full length.
T1 sequence: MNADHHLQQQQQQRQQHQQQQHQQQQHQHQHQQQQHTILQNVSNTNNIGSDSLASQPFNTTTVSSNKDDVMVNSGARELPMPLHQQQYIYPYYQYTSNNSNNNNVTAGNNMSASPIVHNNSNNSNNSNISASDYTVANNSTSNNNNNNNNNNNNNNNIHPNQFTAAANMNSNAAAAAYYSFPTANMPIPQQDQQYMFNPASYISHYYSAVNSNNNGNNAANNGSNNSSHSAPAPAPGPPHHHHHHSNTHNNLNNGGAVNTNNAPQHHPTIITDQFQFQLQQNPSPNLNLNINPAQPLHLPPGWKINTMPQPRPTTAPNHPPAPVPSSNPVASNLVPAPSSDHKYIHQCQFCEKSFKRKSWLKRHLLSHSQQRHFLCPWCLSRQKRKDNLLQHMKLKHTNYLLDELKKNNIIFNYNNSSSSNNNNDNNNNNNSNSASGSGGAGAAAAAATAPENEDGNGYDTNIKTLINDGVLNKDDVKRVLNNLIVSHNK
Method in brief: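 Masliner-normalised scans of fluorescent anti-GST signal were the basis for scoring. That signal came from GST-tagged yeast transcription factors applied at about 100-200 nM to double-stranded universal all-10-mer Agilent arrays on fresh or once-stripped slides. Each ungapped eight-base word, pooled with its reverse complement, received an E-score from the Universal PBM Analysis Suite.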

Row | Sequence | PBM E-score
1 | GAGCCGGA | -0.234
2 | AACATTGC | 0.211
3 | CCTCCCCA | -0.035
4 | AGTAACCG | -0.109
5 | CGTTGGAA | 0.0673
6 | CAATGAAA | 0.0186
7 | AACTCAGC | -0.0251
8 | CGTAGGGA | -0.0699
9 | CTCTATTA | 0.0327
10 | CAGAGGGG | -0.305
11 | ATAATAGG | 0.212
12 | ATCATGTC | 0.245
13 | ACTGTACT | -0.252
14 | ACCCTGTA | 0.112
15 | CGTTGGCC | -0.0208
16 | AAGGCTAG | -0.0838
17 | AGTGGTCC | -0.168
18 | CCTGGTAC | 0.178
19 | GTAATGTA | 0.317
20 | CCAACAAG | 0.0479
21 | ATCGTTAA | 0.101
22 | CTATTTTA | 0.0926
23 | AGGGTTCA | -0.0118
24 | GTTACACA | 0.357
25 | CGTTACAG | 0.0725

Row | Sequence | PBM E-score
26 | CGCATAGC | -0.00771
27 | ACTCGTCT | -0.143
28 | AATTTCAC | 0.121
29 | ACATCTTA | 0.0996
30 | AAGCACTC | -0.129
31 | GCGGAGCA | -0.156
32 | ACGAAGAT | -0.0209
33 | ACACTGTC | 0.0431
34 | AATTGAGC | 0.0168
35 | CCAACTCC | -0.135
36 | CGGGTTAG | -0.132
37 | CCCACGAC | -0.311
38 | TCGGGGAA | -0.0325
39 | AGTCCGCG | -0.156
40 | AAGGTCAG | -0.068
41 | GAGTGAGC | -0.0747
42 | GGGAACAA | 0.0629
43 | CTATTGGC | -0.177
44 | CGAGGGAA | -0.112
45 | ATATCGAT | -0.0715
46 | AAAGCTTC | -0.124
47 | CTATGCTA | 0.0604
48 | TTAATGAA | 0.132
49 | GCTTCCCA | -0.219
50 | CTATCAAC | 0.164

Row | Sequence | PBM E-score
51 | GAGTCTAC | -0.15
52 | CAGGGGGA | -0.16
53 | ATGTTGAC | 0.273
54 | ACAGCAGA | -0.0541
55 | CCAAAGGG | -0.158
56 | CCTTGCGC | 0.0763
57 | CCTACACG | 0.336
58 | GGACATCC | -0.26
59 | CCAATCCC | -0.127
60 | CAACTCTC | -0.124
61 | AAGTTAAC | 0.222
62 | CGTATGTC | 0.0292
63 | ACTATCTC | -0.11
64 | GGCGTTTA | 0.0195
65 | GTTTACTA | 0.258
66 | CAAATTTG | -0.0298
67 | TACACCCA | 0.0243
68 | GTTTCTAA | 0.133
69 | CAGTGCAA | 0.00231
70 | ACCAGTCA | 0.0697
71 | ATAAATTA | 0.195
72 | GTTGACGA | -0.0072
73 | CACCATAC | -0.118
74 | TGCAGAAA | 0.139
75 | GCGCGATA | 0.0202

Row | Sequence | PBM E-score
76 | AGGACAAA | 0.0828
77 | CACGTTCA | 0.251
78 | CCCGGTTC | -0.167
79 | CATCTATC | -0.0463
80 | TCGGGACA | -0.06
81 | AGTAGGTG | -0.049
82 | AAACCGCA | -0.127
83 | GACCCTGA | -0.105
84 | AAATTGCA | 0.00719
85 | CGGAACGA | 0.0162
86 | GTCTAACA | 0.0301
87 | AGTTGTCC | -0.097
88 | GTCTACGA | -0.112
89 | ATTGAGTC | -0.076
90 | ACAGCGGC | -0.112
91 | CGATCTGA | -0.207
92 | ACATATGT | 0.242
93 | AGCTCCCC | -0.366
94 | CTCTCCAG | -0.333
95 | GACCGCTC | -0.276
96 | ACGGTGTC | -0.149
97 | AAACCCGT | -0.069
98 | CCGGCTTA | -0.165
99 | ACGCTTCA | 0.156
100 | ATCTTCAC | -0.0574

Row | Sequence | PBM E-score
101 | GATTCAGA | -0.0558
102 | CCCTACAG | -0.128
103 | GGGGAATA | -0.0792
104 | TAAAACAA | 0.248
105 | GATTAATA | 0.0349
106 | ACCAGACC | -0.0731
107 | CCAACGAC | -0.13
108 | ATAACGAC | -0.0163
109 | GAGAATTA | 0.0891
110 | GTATGTTA | 0.354
111 | AAGATATT | -0.128
112 | CGACTCGC | -0.225
113 | GATTAGTA | 0.133
114 | AGAATCCA | -0.128
115 | ACCTCCGG | -0.156
116 | CAAACGTA | 0.0816
117 | ACTGACCT | -0.155
118 | GGAAAACA | 0.292
119 | GATTGGGC | -0.0885
120 | CTCTATCA | -0.114
121 | GTACCGTA | -0.0156
122 | CGCTATAC | 0.081
123 | GCGTCAGC | -0.147
124 | GCTTGCCC | -0.185
125 | CAGTACGG | -0.0449

Row | Sequence | PBM E-score
126 | ATGTTTTG | 0.237
127 | AGGCTACC | 0.233
128 | GTCTCAGA | -0.0701
129 | CGATAAAC | -0.021
130 | AGCCGAGA | -0.265
131 | GGCACCCC | 0.149
132 | AACATCTG | -0.101
133 | CTGCGAAG | -0.0675
134 | AACAGAGC | -0.00619
135 | CTGTGACA | 0.0656
136 | CCGCTGCA | -0.0673
137 | ATCAGGAA | 0.343
138 | ATAGACGC | 0.0691
139 | AGAATCCG | -0.086
140 | AATCTTCT | 0.112
141 | TCGGGAGA | -0.2
142 | CAAGGAGG | 0.0881
143 | ATGCCCCA | -0.292
144 | CGACTAGC | -0.233
145 | CTGTCTTA | -0.0105
146 | AGACACGG | 0.225
147 | ACATTTTG | 0.147
148 | ACGGTGTG | -0.176
149 | GTACGCTA | 0.0409
150 | ACAGAAGA | 0.0562

Row | Sequence | PBM E-score
151 | CCGAATAA | 0.1
152 | CCACAAAG | 0.00356
153 | ACCCACAT | -0.103
154 | AAGATCAT | -0.0109
155 | CTAAGTTA | 0.0816
156 | CCTCTGAC | -0.145
157 | CGAGCCAC | -0.248
158 | CAACAACC | 0.0394
159 | CGCGCAAG | -0.118
160 | TCCTCAGA | -0.11
161 | ACAACTAT | 0.143
162 | CATCTTAC | 0.00682
163 | TCTATAAA | -0.00901
164 | CCCATGCA | 0.0505
165 | ACACTAGA | 0.0241
166 | ATAGTCGA | -0.0312
167 | CGGATATC | -0.00865
168 | AGCATAGG | 0.0421
169 | AGGGGATG | -0.18
170 | AGATGCCG | -0.212
171 | AAGTAGGC | 0.176
172 | ACGATGGA | 0.097
